Sequences with one replicate were seen in a single cluster, so their values are uncertain.
Tested on: ATP
Experiment: switch fluorescence ratio, 500 uM ATP over buffer (Cy3 cluster intensity, sum of 5 cycles each) (fold (ratio)); higher = stronger signal-on switching upon ATP binding; sequences stand for … in TCGTCGGCAGCGTCAGATGTGTATAAGAGACAGTTTTTTTTTTTTTTTTTTTTTTTTT…TC
Settings: aptamer strand: ATP DNA aptamer (quencher-CACCTGGGGGAGTATTGCGGAGGAAGG + anchor), 100 nM annealed; ATP concentration: 500 uM; one replicate
Method in brief: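 The fluorescence ratio divides summed target-cycle Cy3 intensity by summed buffer-cycle Cy3 intensity for each cluster and is averaged per switch-domain sequence. Cy3-labelled switching-strand clusters on a modified Illumina MiSeq flow-cell were annealed to 100 nM quencher-labelled ATP aptamer, then imaged in selection buffer and again after 15 min with 500 uM ATP at 22 °C. Five such cycles were run, with NaOH stripping and re-annealing between them, and clusters outside 100-1000 RFU were excluded.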
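Also: ATP exposure 15 min at 22 °C before imaging.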

Row | Sequence | switch fluorescence ratio
1 | TTGTTGCACT | 0.966
2 | GTCGGAGCCC | 0.963
3 | CCCGCTCGGT | 1.05
4 | CACCCCCTGC | 1.34
5 | TCTTTCGAGT | 1.05
6 | GGGGAAATAA | 0.968
7 | CGGGATAGCT | 0.999
8 | GTAGACTTAG | 0.984
9 | TTGTTCTTAC | 1.05
10 | GGAAAGTTCA | 1
11 | AATAGGGCCC | 1.07
12 | GAGCTTTCTT | 1.05
13 | GTTCATACA | 0.985
14 | TTCGGGCCAA | 1.67
15 | TACTAAATTT | 0.987
16 | GGGGCTAGGT | 1.01
17 | TGGGCGGCGT | 1.05
18 | TCAATCGTTC | 0.984
19 | GTTCCTTTGC | 1.32
20 | TTTCCACCG | 1.29
21 | TGACATGAAA | 0.998
22 | AGGCGACACG | 0.989
23 | GAGGTCGACG | 1.01

Row | Sequence | switch fluorescence ratio
24 | TGGAGCTCGG | 0.999
25 | AGGAACGGCT | 0.993
26 | GGAGAAGTCG | 0.972
27 | TTTGCCGTTG | 1.06
28 | CGAGAGTCGG | 0.91
29 | TACTCAATGA | 1.04
30 | TCGTTCGGGC | 1.07
31 | GTAATATAAT | 0.969
32 | ACCCCCCGCC | 1.47
33 | AGACGTCCGC | 1.2
34 | CGATTCATAC | 3.56
35 | ATCTCGCCGC | 1.08
36 | GTCACATCGA | 1.02
37 | AGACGGGAGT | 1.07
38 | ATTGGGCGAT | 1
39 | ACAGCCAGGA | 1.01
40 | CGGCTATTGA | 1.01
41 | CTTTAGCTGT | 0.973
42 | CCGGGTAGGT | 1.05
43 | CTGAGGGCGG | 0.992
44 | CCGATAGCAC | 2.71
45 | AATAGTTGG | 0.997
46 | TTTCCGTTCG | 1.03

Row | Sequence | switch fluorescence ratio
47 | GATTTAGATG | 1.01
48 | CTTGCTGAAG | 0.997
49 | TTAATTGCTG | 0.922
50 | TTTCAGCTT | 1.03
51 | CATCAAATGA | 1.01
52 | AAGCCTGACT | 1.34
53 | ATCTAATGGT | 0.969
54 | AGTGGGCGGA | 0.951
55 | GTTGTCTATA | 0.974
56 | CGACGCCTTA | 1.69
57 | TTCTATTGTG | 0.98
58 | TGTGTTTGGC | 1.02
59 | CCTGGGCTAA | 1.04
60 | TATGTGAATA | 0.97
61 | GAGATTATTG | 0.993
62 | GAGCTCCATT | 1.02
63 | CGGAAGCAAG | 1.57
64 | GGGATAGTTC | 1.08
65 | GCGACAAGGT | 1.04
66 | TATGCTTCTC | 0.968
67 | GTCGTTAGCG | 1.04
68 | CTATCCCTGT | 1.04
69 | GGAGTATTCG | 1

Row | Sequence | switch fluorescence ratio
70 | CTGTATGATA | 0.985
71 | GTTAGCGAAT | 1
72 | AGTAGTGCAC | 1.02
73 | AAGTTTTCAA | 0.982
74 | ATGTACATGG | 1.02
75 | CGAGCGTAGA | 1.04
76 | AGGGC | 1.02
77 | GAGATCATCG | 0.957
78 | TCTGATATCC | 1.02
79 | GGTTGATCTA | 0.983
80 | TGTGTCTTA | 1.01
81 | ACAGGATGGG | 1.05
82 | ATTCCGTGCC | 1.28
83 | TTACCCGTTT | 1.02
84 | TATAAAAAGA | 1.02
85 | GAGACATATA | 1.01
86 | AAGTCGGGCG | 1.04
87 | GACGGCGTAG | 0.999
88 | GTAGTACAGC | 0.97
89 | TTCGATAGAT | 1.05
90 | CGTGTATGCG | 0.906
91 | TAATAGCTTA | 1.01
92 | GATTACCCAC | 1.59

Row | Sequence | switch fluorescence ratio
93 | GTTTATTTAT | 0.994
94 | TAATCGTTTT | 0.965
95 | CCCCAGTTTT | 1.17
96 | GATACACGTC | 0.991
97 | GGAGCCGTTC | 1.06
98 | TAGTATACCC | 1.05
99 | AGCCATCATA | 0.977
100 | ACCGGATCAG | 1.01
101 | TGTAAAAAAT | 0.976
102 | ACGATAAGCA | 1.05
103 | TGCTGGCCGC | 1
104 | AAGCCTTGGA | 0.994
105 | CTGTATAAGG | 0.984
106 | TATAAACTGG | 1.07
107 | GGAGTACACG | 0.905
108 | ATTATTAGCA | 0.981
109 | GGCAGTGCCT | 0.977
110 | ATAGCAAGGG | 1.4
111 | ACAGAAATTG | 1.05
112 | AAATGTGAGA | 0.991
113 | TTACAGCACT | 1.59
114 | AAGTCATAGT | 0.995
115 | AAAGTACGTT | 1.13

Row | Sequence | switch fluorescence ratio
116 | CGCACGGAGT | 0.977
117 | GTACCTTGCG | 0.993
118 | CGCGGATGTT | 0.996
119 | TTGCTTCTTA | 1.02
120 | CCCACCCCCA | 1.04
121 | TTTATCGAGT | 1.07
122 | CGCCTGAACC | 1.08
123 | TACTATGG | 1.01
124 | AGTCGACACT | 1.03
125 | ATGTTCAGT | 0.977
126 | TTGCCAAACA | 0.985
127 | ACGGAGGGGC | 1.05
128 | CGTGTGAATG | 0.918
129 | AGGTCCGGGG | 1.02
130 | ATGCCAACGT | 1
131 | TGATCAGTTG | 0.985
132 | GGGGCGGCAA | 1.32
133 | GTAGGTGAGC | 0.996
134 | GCTATTCTT | 1.01
135 | AGGATCAGT | 1.03
136 | AATTCCAGTG | 1.13
137 | GAGTCTGGTA | 1.02
138 | AGTGCTAACG | 1.24

Row | Sequence | switch fluorescence ratio
139 | AGCTAGATAG | 1.04
140 | ATCGATGTTA | 0.98
141 | TAGGGGTCTA | 0.971
142 | ACGTTTGAAG | 1
143 | TTTGGTCAAC | 0.958
144 | TGTCTGGCCG | 1.04
145 | AGCGATGGTG | 1.02
146 | CCTGTTCTAG | 1.04
147 | AGATTAGGAG | 1.02
148 | AGTCATAGGG | 1.01
149 | AAGACGAAAG | 1.02
150 | TGAAAATTAT | 0.995
151 | TAGTCGTCAC | 0.986
152 | CATATGTCGG | 1.01
153 | CGTTTGCTCC | 1.1
154 | GAATTTGTAC | 1.12
155 | ATTACTGAAA | 1
156 | ATTTGAAAAT | 1.01
157 | TAGTTTGTGC | 1.04
